86 sequences from the supplement of paper PMC3334620 can be followed below.

Over roughly 33,000 sequences, “E-score (-0.5 to 0.5)” has its median near -0.04; the highest 2% begin near 0.36. Some of the results follow.

This assay deals with T1, Hmlalpha2 (UniProt P0CY09).
T1 sequence: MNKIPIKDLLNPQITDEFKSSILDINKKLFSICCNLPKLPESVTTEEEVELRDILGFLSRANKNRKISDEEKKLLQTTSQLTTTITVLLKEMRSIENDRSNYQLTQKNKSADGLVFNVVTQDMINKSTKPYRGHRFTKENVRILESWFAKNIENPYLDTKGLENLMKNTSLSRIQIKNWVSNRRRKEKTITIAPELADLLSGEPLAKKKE
Briefly: PBM E-score (8-mer binding enrichment) (E-score (-0.5 to 0.5)); higher = stronger / more preferred TF binding; most listed sequences are background and not binding sites. The settings on record: protein concentration: 200 nM; construct: GST-full length. As for the experimental part:
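Universal 'all 10-mer' protein binding microarrays (Agilent AMADID 015681) probed with GST-tagged S. cerevisiae TFs (full-length or DBD) made by in vitro transcription/translation (PURExpress), about 100-200 nM. Bound TF was detected with fluorescent anti-GST. Each ungapped 8-mer (which stands for itself and its reverse complement) is scored by the PBM enrichment score (E-score), a modified Wilcoxon-Mann-Whitney statistic from -0.5 to +0.5, computed with the Universal PBM Analysis Suite. Scale: above 0.35 generally sequence-specific binding.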
On to ACGATCTA, for which the “PBM E-score” value was determined as 0.0859.
CTGGACCC: the “PBM E-score” value was -0.305.
In the case of GATCGCAC it was 0.141; in that of ACTCAAGC, -0.0469.
Consider ACTGGTCG, for which the “PBM E-score” value was -0.202.
Regarding GACAGCAA, the “PBM E-score” value is -0.177.
Under CATTGCCC stands -0.291; under ATGTTAAA, 0.473.
For ACGGATGG, the “PBM E-score” value was -0.11.
Regarding GCCTCATA, the “PBM E-score” value is -0.312.
With ACGAGGGC, the “PBM E-score” value was -0.131.
In the case of AGGGCGAG it was -0.195.
Under AGTAATCC stands 0.181; under CCCTGATA, -0.282; under GAAGAGTC, 0.166.
Under CTGATTCA stands 0.0122; under CAGTTGGA, -0.2; under CGTCGATA, 0.116.
Turning to ATCAAAAC, the “PBM E-score” value amounted to 0.0781.
As to GACTATCA, the “PBM E-score” value was -0.101.
For the sequence AAAGGCTC, the “PBM E-score” value was -0.223.
Consider ACCTCTTA, for which the “PBM E-score” value came out at 0.0621.
Regarding TCTCACAA, the “PBM E-score” value was -0.0754.
In the case of ATCGCAAC it was -0.04; in that of AATGAGCT, -0.0972; in that of AATATGCA, -0.0317.
Regarding ATCAGACC, the “PBM E-score” value is -0.123.
Turning to GGAAGTCC, the “PBM E-score” value was -0.303.
Consider GATGTAGC, for which the “PBM E-score” value was -0.0783.
For CACGAGGC, the “PBM E-score” value was 0.0563.
For CGGCAAAA, the “PBM E-score” value is -0.11.
Under GCAAAAGC stands 0.0892; under CGGTCGTA, -0.332.
As to CAAGGTAG, the “PBM E-score” value is -0.11.
Regarding ACGAGGCA, the “PBM E-score” value was 0.11.
Under GGGGTCCA stands -0.276; under CAGGAGGC, -0.267.
In the case of GCCATCGA, the “PBM E-score” value is -0.104.
Under AACTAAAC stands 0.0711; under CGCCGGAG, -0.168; under ATCTAAAT, 0.11.
On to CTTCGGTC, for which the “PBM E-score” value worked out at 0.0585.
Under CTTTCGCA stands -0.0307; under ATCGTGAC, -0.0005; under GCTTAGTA, 0.152.
Regarding ATTCTCGA, the “PBM E-score” value was 0.018.
On to CAATTACC, for which the “PBM E-score” value was 0.0295.
As for CCATAGTA, the “PBM E-score” value is -0.0457.
In the case of AGTGAACG, the “PBM E-score” value is -0.0185.
As for CTGCTACC, the “PBM E-score” value was -0.131.
ACTCCTTG: the “PBM E-score” value is -0.033.
On to AAATACGA, for which the “PBM E-score” value was determined as 0.231.
Take ACGCTACC: the “PBM E-score” value is -0.172.
Turning to AGAGGCCC, the “PBM E-score” value was -0.341.
For the sequence ATTTTATC, the “PBM E-score” value was 0.144.
With AGCGATTC, the “PBM E-score” value is -0.186.
Under GAGGTTAA stands 0.061; under GCCAACCC, -0.205; under CCTGCGCA, -0.292.
Under GCCTAAAA stands -0.118; under ATCGAAAC, -0.0565; under GTACCAAC, 0.199.
For CAGGCCCA, the “PBM E-score” value was -0.135.
For the sequence ACGCTGAC, the “PBM E-score” value was 0.0606.
With TACATCGA, the “PBM E-score” value stood at 0.177.
For the sequence ATCGGGTA, the “PBM E-score” value is -0.101.
In the case of CTTACGCC it was 0.0948.
In the case of CCAGTTCG it was -0.131; in that of AGGAATCC, -0.178; in that of ACGCGTTG, 0.341.
Regarding GCTGTTAA, the “PBM E-score” value came out at 0.262.
In the case of CAGTGACG, the “PBM E-score” value is -0.0973.
In the case of CCGTCCTA it was -0.147; in that of ACAGCTAT, 0.0847; in that of CATCGACC, -0.213.
For the sequence GAATGATA, the “PBM E-score” value turned out to be 0.0352.
AAAACTCA: the “PBM E-score” value turned out to be 0.14.
Under ACGGCACT stands -0.102; under CGTGTGAG, 0.138.
As to GCATTTTA, the “PBM E-score” value was found to be 0.0743.
In the case of TATGAAGA, the “PBM E-score” value was 0.0275.
In the case of AAGCAATT, the “PBM E-score” value was determined as 0.0992.
For the sequence AGATGTGA, the “PBM E-score” value was -0.0114.
Under CATGTTTA stands 0.437; under CTCTTCTC, -0.254; under CCCAGGCG, -0.0902.
